Assay results: the supplement of paper PMC12423691
The list shows a part of the results. Binding of human transcription factors and regulators to the viral nucleoprotein by AlphaScreen, crude cell-free proteins, amounts not normalised, one pass. Fold of the Venus control; higher = more signal. No active / inactive call. Single-pass screen; sequences are the whole Swiss-Prot entries looked up by name.

B1: FOXE1, O00358 (protein)
chain: MTAESGPPPPQPEVLATVKEERGETAAGAGVPGEATGRGAGGRRRKRPLQRGKPPYSYIALIAMAIAHAPERRLTLGGIYKFITERFPFYRDNPKKWQNSIRHNLTLNDCFLKIPREAGRPGKGNYWALDPNAEDMFESGSFLRRRKRFKRSDLSTYPAYMHDAAAAAAAAAAAAAAAAIFPGAVPAARPPYPGAVYAGYAPPSLAAPPPVYYPAASPGPCRVFGLVPERPLSPELGPAPSGPGGSCAFASAGAPATTTGYQPAGCTGARPANPSAYAAAYAGPDGAYPQGAGSAIFAAAGRLAGPASPPAGGSSGGVETTVDFYGRTSPGQFGALGACYNPGGQLGGASAGAYHARHAAAYPGGIDRFVSAM
B2: ZXDC, Q2QGD7 (protein)
chain: MDLPALLPAPTARGGQHGGGPGPLRRAPAPLGASPARRRLLLVRGPEDGGPGARPGEASGPSPPPAEDDSDGDSFLVLLEVPHGGAAAEAAGSQEAEPGSRVNLASRPEQGPSGPAAPPGPGVAPAGAVTISSQDLLVRLDRGVLALSAPPGPATAGAAAPRRAPQASGPSTPGYRCPEPQCALAFAKKHQLKVHLLTHGGGQGRRPFKCPLEGCGWAFTTSYKLKRHLQSHDKLRPFGCPVGGCGKKFTTVYNLKAHMKGHEQESLFKCEVCAERFPTHAKLSSHQRSHFEPERPYKCDFPGCEKTFITVSALFSHNRAHFREQELFSCSFPGCSKQYDKACRLKIHLRSHTGERPFICDSDSCGWTFTSMSKLLRHRRKHDDDRRFTCPVEGCGKSFTRAEHLKGHSITHLGTKPFECPVEGCCARFSARSSLYIHSKKHVQDVGAPKSRCPVSTCNRLFTSKHSMKAHMVRQHSRRQDLLPQLEAPSSLTPSSELSSPGQSELTNMDLAALFSDTPANASGSAGGSDEALNSGILTIDVTSVSSSLGGNLPANNSSLGPMEPLVLVAHSDIPPSLDSPLVLGTAATVLQQGSFSVDDVQTVSAGALGCLVALPMKNLSDDPLALTSNSNLAAHITTPTSSSTPRENASVPELLAPIKVEPDSPSRPGAVGQQEGSHGLPQSTLPSPAEQHGAQDTELSAGTGNFYLESGGSARTDYRAIQLAKEKKQRGAGSNAGASQSTQRKIKEGKMSPPHFHASQNSWLCGSLVVPSGGRPGPAPAAGVQCGAQGVQVQLVQDDPSGEGVLPSARGPATFLPFLTVDLPVYVLQEVLPSSGGPAGPEATQFPGSTINLQDLQ
B3: GTF2H3, Q13889 (protein)
chain: MVSDEDELNLLVIVVDANPIWWGKQALKESQFTLSKCIDAVMVLGNSHLFMNRSNKLAVIASHIQESRFLYPGKNGRLGDFFGDPGNPPEFNPSGSKDGKYELLTSANEVIVEEIKDLMTKSDIKGQHTETLLAGSLAKALCYIHRMNKEVKDNQEMKSRILVIKAAEDSALQYMNFMNVIFAAQKQNILIDACVLDSDSGLLQQACDITGGLYLKVPQMPSLLQYLLWVFLPDQDQRSQLILPPPVHVDYRAACFCHRNLIEIGYVCSVCLSIFCNFSPICTTCETAFKISLPPVLKAKKKKLKVSA
B4: ZXDA, P98168 (protein)
chain: MEIPKLLPARGTLQGGGGGGIPAGGGRVHRGPDSPAGQVPTRRLLLPRGPQDGGPGRRREEASTASRGPGPSLFAPRPHQPSGGGDDFFLVLLDPVGGDVETAGSGQAAGPVLREEAKAGPGLQGDESGANPAGCSAQGPHCLSAVPTPAPISAPGPAAAFAGTVTIHNQDLLLRFENGVLTLATPPPHAWEPGAAPAQQPRCLIAPQAGFPQAAHPGDCPELRSDLLLAEPAEPAPAPAPQEEAEGLAAALGPRGLLGSGPGVVLYLCPEALCGQTFAKKHQLKMHLLTHSSSQGQRPFKCPLGGCGWTFTTSYKLKRHLQSHDKLRPFGCPAEGCGKSFTTVYNLKAHMKGHEQENSFKCEVCEESFPTQAKLGAHQRSHFEPERPYQCAFSGCKKTFITVSALFSHNRAHFREQELFSCSFPGCSKQYDKACRLKIHLRSHTGERPFLCDFDGCGWNFTSMSKLLRHKRKHDDDRRFMCPVEGCGKSFTRAEHLKGHSITHLGTKPFVCPVAGCCARFSARSSLYIHSKKHLQDVDTWKSRCPISSCNKLFTSKHSMKTHMVKRHKVGQDLLAQLEAANSLTPSSELTSQRQNDLSDAEIVSLFSDVPDSTSAALLDTALVNSGILTIDVASVSSTLAGHLPANNNNSVGQAVDPPSLMATSDPPQSLDTSLFFGTAATGFQQSSLNMDEVSSVSVGPLGSLDSLAMKNSSPEPQALTPSSKLTVDTDTLTPSSTLCENSVSELLTPAKAEWSVHPNSDFFGQEGETQFGFPNAAGNHGSQKERNLITVTGSSFLV
B5: HMGB2, P26583 (protein)
chain: MGKGDPNKPRGKMSSYAFFVQTCREEHKKKHPDSSVNFAEFSKKCSERWKTMSAKEKSKFEDMAKSDKARYDREMKNYVPPKGDKKGKKKDPNAPKRPPSAFFLFCSEHRPKIKSEHPGLSIGDTAKKLGEMWSEQSAKDKQPYEQKAAKLKEKYEKDIAAYRAKGKSEAGKKGPGRPTGSKKKNEPEDEEEEEEEEDEDEEEEDEDEE
B6: CYP1B1, Q16678 (protein)
chain: MGTSLSPNDPWPLNPLSIQQTTLLLLLSVLATVHVGQRLLRQRRRQLRSAPPGPFAWPLIGNAAAVGQAAHLSFARLARRYGDVFQIRLGSCPIVVLNGERAIHQALVQQGSAFADRPAFASFRVVSGGRSMAFGHYSEHWKVQRRAAHSMMRNFFTRQPRSRQVLEGHVLSEARELVALLVRGSADGAFLDPRPLTVVAVANVMSAVCFGCRYSHDDPEFRELLSHNEEFGRTVGAGSLVDVMPWLQYFPNPVRTVFREFEQLNRNFSNFILDKFLRHCESLRPGAAPRDMMDAFILSAEKKAAGDSHGGGARLDLENVPATITDIFGASQDTLSTALQWLLLLFTRYPDVQTRVQAELDQVVGRDRLPCMGDQPNLPYVLAFLYEAMRFSSFVPVTIPHATTANTSVLGYHIPKDTVVFVNQWSVNHDPLKWPNPENFDPARFLDKDGLINKDLTSRVMIFSVGKRRCIGEELSKMQLFLFISILAHQCDFRANPNEPAKMNFSYGLTIKPKSFKVNVTLRESMELLDSAVQNLQAKETCQ
B7: TRIM14, Q14142 (protein)
chain: MAGAATGSRTPGRSELVEGCGWRCPEHGDRVAELFCRRCRRCVCALCPVLGAHRGHPVGLALEAAVHVQKLSQECLKQLAIKKQQHIDNITQIEDATEKLKANAESSKTWLKGKFTELRLLLDEEEALAKKFIDKNTQLTLQVYREQADSCREQLDIMNDLSNRVWSISQEPDPVQRLQAYTATEQEMQQQMSLGELCHPVPLSFEPVKSFFKGLVEAVESTLQTPLDIRLKESINCQLSDPSSTKPGTLLKTSPSPERSLLLKYARTPTLDPDTMHARLRLSADRLTVRCGLLGSLGPVPVLRFDALWQVLARDCFATGRHYWEVDVQEAGAGWWVGAAYASLRRRGASAAARLGCNRQSWCLKRYDLEYWAFHDGQRSRLRPRDDLDRLGVFLDYEAGVLAFYDVTGGMSHLHTFRATFQEPLYPALRLWEGAISIPRLP
B8: ZFAT, Q9P243 (protein)
chain: METRAAENTAIFMCKCCNLFSPNQSELLSHVSEKHMEEGVNVDEIIIPLRPLSTPEPPNSSKTGDEFLVMKRKRGRPKGSTKKSSTEEELAENIVSPTEDSPLAPEEGNSLPPSSLECSKCCRKFSNTRQLRKHICIIVLNLGEEEGEAGNESDLELEKKCKEDDREKASKRPRSQKTEKVQKISGKEARQLSGAKKPIISVVLTAHEAIPGATKIVPVEAGPPETGATNSETTSADLVPRRGYQEYAIQQTPYEQPMKSSRLGPTQLKIFTCEYCNKVFKFKHSLQAHLRIHTNEKPYKCPQCSYASAIKANLNVHLRKHTGEKFACDYCSFTCLSKGHLKVHIERVHKKIKQHCRFCKKKYSDVKNLIKHIRDAHDPQDKKVKEALDELCLMTREGKRQLLYDCHICERKFKNELDRDRHMLVHGDKWPFACELCGHGATKYQALELHVRKHPFVYVCAVCRKKFVSSIRLRTHIKEVHGAAQEALVFTSSINQSFCLLEPGGDIQQEALGDQLQLVEEEFALQGVNALKEEACPGDTQLEEGRKEPEAPGEMPAPAVHLASPQAESTALPPCELETTVVSSSDLHSQEVVSDDFLLKNDTSSAEAHAAPEKPPDMQHRSSVQTQGEVITLLLSKAQSAGSDQESHGAQSPLGEGQNMAVLSAGDPDPSRCLRSNPAEASDLLPPVAGGGDTITHQPDSCKAAPEHRSGITAFMKVLNSLQKKQMNTSLCERIRKVYGDLECEYCGKLFWYQVHFDMHVRTHTREHLYYCSQCHYSSITKNCLKRHVIQKHSNILLKCPTDGCDYSTPDKYKLQAHLKVHTALDKRSYSCPVCEKSFSEDRLIKSHIKTNHPEVSMSTISEVLGRRVQLKGLIGKRAMKCPYCDFYFMKNGSDLQRHIWAHEGVKPFKCSLCEYATRSKSNLKAHMNRHSTEKTHLCDMCGKKFKSKGTLKSHKLLHTADGKQFKCTVCDYTAAQKPQLLRHMEQHVSFKPFRCAHCHYSCNISGSLKRHYNRKHPNEEYANVGTGELAAEVLIQQGGLKCPVCSFVYGTKWEFNRHLKNKHGLKVVEIDGDPKWETATEAPEEPSTQYLHITEAEEDVQGTQAAVAALQDLRYTSESGDRLDPTAVNILQQIIELGAETHDATALASVVAMAPGTVTVVKQVTEEEPSSNHTVMIQETVQQASVELAEQHHLVVSSDDVEGIETVTVYTQGGEASEFIVYVQEAMQPVEEQAVEQPAQEL
B9: ZNF205, O95201 (protein)
chain: MSADGGGIQDTQDKETPPEVPDRGHPHQEMPSKLGEAVPSGDTQESLHIKMEPEEPHSEGASQEDGAQGAWGWAPLSHGSKEKALFLPGGALPSPRIPVLSREGRTRDRQMAAALLTAWSQMPVTFEDVALYLSREEWGRLDHTQQNFYRDVLQKKNGLSLGFPFSRPFWAPQAHGKGEASGSSRQAGDEKEWRGACTGAVEVGQRVQTSSVAALGNVKPFRTRAGRVQWGVPQCAQEAACGRSSGPAKDSGQPAEPDRTPDAAPPDPSPTEPQEYRVPEKPNEEEKGAPESGEEGLAPDSEVGRKSYRCEQCGKGFSWHSHLVTHRRTHTGEKPYACTDCGKRFGRSSHLIQHQIIHTGEKPYTCPACRKSFSHHSTLIQHQRIHTGEKPYVCDRCAKRFTRRSDLVTHQGTHTGAKPHKCPICAKCFTQSSALVTHQRTHTGVKPYPCPECGKCFSQRSNLIAHNRTHTGEKPYHCLDCGKSFSHSSHLTAHQRTHRGVRPYACPLCGKSFSRRSNLHRHEKIHTTGPKALAMLMLGAAAAGALATPPPAPT

Each binder was assayed against nucleoprotein N of Crimean-Congo hemorrhagic fever virus (assay: AlphaScreen luminescence signal relative to Venus negative control (fold); higher = stronger binding to CCHFV N).
Protocol: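 AlphaScreen binding of cell-free made, FLAG-GST-tagged human transcription factors and regulators (crude translation products) to biotinylated N protein; signal as fold of the FLAG-GST-Venus control. One pass.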

Binder | AlphaScreen luminescence signal
B1 | 1.67
B2 | 0.837
B3 | 2.37
B4 | 1.95
B5 | 4.09
B6 | 2.65
B7 | 2.84
B8 | 3.4
B9 | 1.77
